Among all 230,000 compounds or so, about 3,600 (1.6%) were called active. The shares of active, inactive and inconclusive entries below differ from those in the screen. The call rests on the fitted dose curve; in most records, active means well fitted inhibition curve with a large enough effect (not every such curve was filed as active); inconclusive means small, poorly fitted or top-dose-only effect, or another doubt; inactive means no such curve, though single readings can be large or run the other way. A potency beside an inconclusive call is a rough fit, not a confirmed value.
Each compound was assayed against Lysine-specific demethylase 4E (Homo sapiens) (UniProt B2RXH2) (assay: qHTS Assay for Inhibitors of Human Jumonji Domain Containing 2E (JMJD2E)). Details: JMJD2E catalytic domain, FDH-coupled NADH fluorescence (FDH is formaldehyde dehydrogenase); series mostly up to 57.1 µM.
Chain of UniProt B2RXH2 (B2RXH2 whole entry, looked up, the tested form may be a part): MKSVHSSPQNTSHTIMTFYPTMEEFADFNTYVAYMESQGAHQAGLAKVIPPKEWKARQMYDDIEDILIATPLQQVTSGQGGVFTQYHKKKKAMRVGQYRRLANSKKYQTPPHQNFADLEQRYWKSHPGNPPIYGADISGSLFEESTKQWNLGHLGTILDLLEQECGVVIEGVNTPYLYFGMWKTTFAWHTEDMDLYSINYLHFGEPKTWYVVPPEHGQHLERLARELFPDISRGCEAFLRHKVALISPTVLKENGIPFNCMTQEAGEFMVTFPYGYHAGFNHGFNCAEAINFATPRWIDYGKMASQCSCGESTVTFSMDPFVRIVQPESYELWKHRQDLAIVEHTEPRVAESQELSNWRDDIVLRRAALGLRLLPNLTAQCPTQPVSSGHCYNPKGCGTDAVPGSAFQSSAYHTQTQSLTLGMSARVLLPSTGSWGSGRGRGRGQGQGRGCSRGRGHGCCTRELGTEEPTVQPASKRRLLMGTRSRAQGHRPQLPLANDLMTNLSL
For `O=C(CCc1ccccc1)Nc1nncs1`, the Potency was inconclusive: 20 µM [inhibitor, single point].
`COc1ccc(-c2nc3c4ccccc4ccn3c2CN2CCOCC2)cc1OC` was tested, and the Potency was inconclusive: 31.6 µM [inhibitor, partial curve].
For `COc1cc2[nH]c3c(N4CCN(c5ccccn5)CC4)ncnc3c2cc1OC`, the Potency was inconclusive: 22.4 µM [inhibitor, partial curve].
`CN(C)CC(C)(C)CNC(=O)C1CCN(Cc2ccccc2O)CC1` was tested, and the Potency was inconclusive: 28.2 µM [inhibitor, single point].
`Cc1cccc(C2=N/C(=C\c3cccnc3)C(=O)O2)c1` was tested, and the Potency was inconclusive: 39.8 µM [inhibitor, single point].
With `O=C(Nc1ccc(-c2nc3ccccc3[nH]2)cc1)c1cccc(N2C(=O)CCC2=O)c1` the Potency was inconclusive: 28.2 µM [inhibitor, partial curve].
With `O=C(/C(=C\c1ccccc1)c1nc2ccccc2[nH]1)c1ccc(Cl)cc1` the Potency was “inactive”.
For `O=C(COC(=O)/C=C/c1ccccc1[N+](=O)[O-])NCC(F)(F)F`, the Potency was “inactive”.
With `Nc1nnc(CC(=O)N/N=C\c2ccc(-c3cccc(Cl)c3)o2)s1` the Potency was inconclusive: 39.8 µM [inhibitor, single point].
With `O=C(Nc1cccc(N2CCCC2)c1)c1cccs1` the Potency was “inactive”.
`C/C=C/Cn1c(SCc2ccccc2)nc2c1c(=O)[nH]c(=O)n2C` was tested, and the Potency was “inactive”.
In the case of `CC(C)(C)c1ccc(-c2nnc(N)o2)cc1`, the Potency is reported as inconclusive: 25.1 µM [inhibitor, single point].
With `CSc1nc2c(c(=O)[nH]c(=O)n2C)n1C/C=C(\C)Cl` the Potency was “inactive”.
For `COC(=O)C(N)CS` (centres undefined), the Potency was “inactive”.
`COc1ccccc1CN1CN(S(=O)(=O)c2ccccc2)c2nc3ccccc3nc21` was tested, and the Potency was inconclusive: 39.8 µM [inhibitor, single point].
`CCOC(=O)c1cc2c(ccn2C)n1Cc1ccc(Cl)cc1` was tested, and the Potency was inconclusive: 28.2 µM [inhibitor, partial curve].
`COc1ccc(Nc2ccc(OC)cc2)cc1` was tested, and the Potency was inconclusive: 2.51 µM [inhibitor, full curve].
For `O=C(O)CC(=O)Nc1ccccc1C(=O)O`, the Potency was inconclusive: 39.8 µM [inhibitor, single point].
With `COc1ccc(/C=C/C(=O)NC(=S)NNC(=O)Cc2cccs2)cc1` the Potency was inconclusive: 39.8 µM [inhibitor, single point].
In the case of `Cc1c(O)c(O)cc2c1oc1c3ccccc3oc(=O)c21`, the Potency is reported as inconclusive: 35.5 µM [inhibitor, single point].
`COc1ccc(CNC(=O)c2c(-c3cc(Cl)c(OC)c(Cl)c3)noc2C)cc1` was tested, and the Potency was “inactive”.
For `CC(Oc1ccccc1)c1ccnc2nc(/N=C/N(C)C)nn12` (centres undefined), the Potency was inconclusive: 28.2 µM [inhibitor, partial curve].
`COc1cccc(C(C(=O)NCC2CCCO2)N(CC2CCCO2)C(=O)CN2C(=O)c3ccccc3S2(=O)=O)c1` (centres undefined) was tested, and the Potency was inconclusive: 39.8 µM [inhibitor, single point].
With `O=C(Nc1ccccc1N1CCCC1)c1cccc(-c2cc3ccccc3oc2=O)c1` the Potency was inconclusive: 25.1 µM [inhibitor, single point].
With `COc1ccccc1Nc1nc(Cl)nc(Nc2ccccc2OC)n1` the Potency was inconclusive: 39.8 µM [inhibitor, single point].
`CCC(=O)Nc1ccc(-c2cc(-c3ccccc3)nc(-c3ccc(NC(=O)CC)cc3)n2)cc1` was tested, and the Potency was inconclusive: 20 µM [inhibitor, partial curve].
With `Nc1ccccc1N=Cc1ccc(-c2cccc(Cl)c2)o1` the Potency was inconclusive: 3.16 µM [inhibitor, full curve].
In the case of `CC1=CC(C)(C)Nc2ccc(OC(=O)C(Cc3ccccc3)N3C(=O)C4CCCCC4C3=O)cc21` (centres undefined), the Potency is reported as inconclusive: 28.2 µM [inhibitor, partial curve].
With `Cn1c(Cc2nc(-c3cnccn3)no2)nnc1SCC(=O)Nc1ccccc1` the Potency was “inactive”.
For `NC(=O)CSc1nnc(-c2ccc(S(=O)(=O)N3CCCC3)cc2)n1CC1CCCO1` (centres undefined), the Potency was inconclusive: 20 µM [inhibitor, partial curve].
With `O=C(CN1CCN(C(c2ccccc2)c2ccccc2)CC1)N1CCOCC1` the Potency was inconclusive: 35.5 µM [inhibitor, single point].
`Cc1cc(NC(=O)CCCS(=O)(=O)c2nc(-c3cccs3)cc(C(F)(F)F)n2)no1` was tested, and the Potency was inconclusive: 35.5 µM [inhibitor, single point].
With `COc1ccc(N=Nc2c(N)n[nH]c2N)cc1` the Potency was “inactive”.
`CC(C)c1ccc(/C=N/NC(=O)C(=O)NCCCN2CCOCC2)cc1` was tested, and the Potency was “inactive”.
For `Cc1ccc(NC(=O)CN2CCc3ccccc3C2)cc1F`, the Potency was inconclusive: 25.1 µM [inhibitor, single point].
With `Cc1ccc2oc(-c3ccco3)cc(=O)c2c1` the Potency was inconclusive: 28.2 µM [inhibitor, partial curve].
For `CC(NCc1ccc2c(c1)OCO2)C(=O)NC1CCCc2ccccc21` (centres undefined), the Potency was inconclusive: 25.1 µM [inhibitor, single point].
`COC(=O)COc1ccc2oc(=O)cc(C)c2c1` was tested, and the Potency was inconclusive: 28.2 µM [inhibitor, single point].
For `Cc1noc(C)c1COC(=O)c1cc2c3ccccc3n(C)c2s1`, the Potency was inconclusive: 28.2 µM [inhibitor, partial curve].
For `O=C(O)c1cc(NCc2ccc3c(c2)OCO3)ccc1N1CCOCC1`, the Potency was inconclusive: 39.8 µM [inhibitor, single point].
In the case of `COc1cc2oc(=O)c3c4c(cc5ccc(c1CCN(C)C)c2c53)OCO4`, the Potency is reported as inconclusive: 31.6 µM [inhibitor, single point].
For `CCOC(=O)N1CCN(CC(=O)Nc2c(C(=O)OC)[nH]c3ccc(Cl)cc23)CC1`, the Potency was inconclusive: 31.6 µM [inhibitor, partial curve].
In the case of `Cc1ccc(S(=O)(=O)N(CC(=O)Nc2ccccc2C(=O)O)c2ccc(Cl)cc2)cc1`, the Potency is reported as inconclusive: 31.6 µM [inhibitor, partial curve].
`Cc1ccc(S(=O)(=O)N(Cc2cc3cc4c(cc3[nH]c2=O)OCCO4)CC2CCCO2)cc1` (centres undefined) was tested, and the Potency was inconclusive: 14.1 µM [inhibitor, partial curve].
Further: nearly all actives have a fitted effect of over 50% in size.
Potency means the concentration at half of the fitted maximal effect; tags describe the fitted curve by direction and shape.
